Reference: patent US20240376128A1, “N-CYCLOPROPYLPYRIDO [4, 3-D] PYRIMIDIN-4-AMINE DERIVATIVES AND USES THEREOF” (Jacobio Pharmaceuticals Co., Ltd., priority 2021, published 2024)

Columns and labels:
[1] = target: T1, K-Ras G13D (Homo sapiens, UniProt P01116, G13D); test: Nucleotide exchange assay (GDP form K-Ras, no SOS1 added), TR-FRET; details: read-out: Biochemical assays, IC50, K-Ras G13D GDP
Method: (§1) The parameters were F486: Excitation 340 nm, Emission 486 nm, Lag time 100 pas, Integration time 200 pas; F515: Excitation 340 nm, Emission 515 nm, Lag time 100 pas, Integration time 200 pas. TR-FRET ratios for each individual wells were calculated by equation: TR-FRET ratio=(Signal F515/Signal F486)*10000.

[2] = target: T2, K-Ras G12C (Homo sapiens, UniProt P01116, G12C); test: SOS1 catalyzed nucleotide exchange assay (GDP form K-Ras), TR-FRET; details: read-out: Biochemical assays, IC50, K-Ras G12C GDP
Method: as §1

[3] = target: T3, K-Ras G12R (Homo sapiens, UniProt P01116, G12R); test: as above; details: read-out: Biochemical assays, IC50, K-Ras G12R GDP
Method: as §1

[4] = target: T4, K-Ras G12V (Homo sapiens, UniProt P01116, G12V); test: as above; details: read-out: Biochemical assays, IC50, K-Ras G12V GDP
Method: as §1

[5] = target: T5, K-Ras Q61H (Homo sapiens, UniProt P01116, Q61H); test: as above; details: read-out: Biochemical assays, IC50, K-Ras Q61H GDP
Method: as §1

[6] = target: T6, K-Ras G12A (Homo sapiens, UniProt P01116, G12A); test: GTP-K-Ras (GppNp-K-Ras) and cRAF interaction assay, HTRF; details: read-out: Biochemical assays, IC50, K-Ras G12A GppNp
Excerpt: (§2) GppNp is an analog of GTP.

[7] = target: T2, K-Ras G12C; test: as above; details: read-out: Biochemical assays, IC50, K-Ras G12C GppNp
Excerpt: as §2

[8] = target: K-Ras G12D (Homo sapiens, UniProt P01116, G12D); test: as above; details: read-out: Biochemical assays, IC50, K-Ras G12D GppNp
Excerpt: as §2

[9] = target: T3, K-Ras G12R; test: as above; details: read-out: Biochemical assays, IC50, K-Ras G12R GppNp
Excerpt: as §2

[10] = target: T4, K-Ras G12V; test: as above; details: read-out: Biochemical assays, IC50, K-Ras G12V GppNp
Excerpt: as §2

[11] = target: T5, K-Ras Q61H; test: as above; details: read-out: Biochemical assays, IC50, K-Ras Q61H GppNp
Excerpt: as §2

[12] = tested on: AGS cell line (K-Ras G12D); test: Phospho-ERK1/2(THR202/TYR204) HTRF assay; assay type: cell-based; details: Homo sapiens; AGS cells (K-Ras G12D), 2 hours incubation; read-out: p-ERK, IC50(nM) AGS
[13] = tested on: RERF-LC-Ad1 cell line (K-Ras G12A); test: Phospho-ERK1/2(THR202/TYR204) HTRF assay; assay type: cell-based; details: RERF-LC-Ad1 cells (K-Ras G12A), 2 hours incubation; read-out: p-ERK, IC50(nM) RERF-LC-Ad1
[14] = tested on: TCC-PAN2 cell line (K-Ras G12R); test: Phospho-ERK1/2(THR202/TYR204) HTRF assay; assay type: cell-based; details: TCC-PAN2 cells (K-Ras G12R), 2 hours incubation; read-out: p-ERK, IC50(nM) TCC-PAN2
[15] = tested on: NCI-H460 cell line (K-Ras Q61H); test: Phospho-ERK1/2(THR202/TYR204) HTRF assay; assay type: cell-based; details: Homo sapiens; NCI-H460 cells (K-Ras Q61H), 2 hours incubation; read-out: p-ERK, IC50(nM) NCI-H460
[16] = tested on: MKN-1 cell line (K-Ras WT amplification); test: Phospho-ERK1/2(THR202/TYR204) HTRF assay; assay type: cell-based; details: Homo sapiens; MKN-1 cells (K-Ras WT amplification), 2 hours incubation; read-out: p-ERK, IC50(nM) MKN-1
[17] = tested on: K-Ras mutant and K-Ras WT cell lines indicated in Table 20; test: 2D cell growth inhibition assay (CellTiter-Glo, 6 days); assay type: cell-based
Method: Each of cells in culture medium was plated in TC-treated 96-well plates at a density indicated in Table 20 and incubated in a cell incubator overnight.

[18] = tested on: K-Ras mutant and K-Ras WT cell lines indicated in Table 20; test: 3D cell growth inhibition assay (CellTiter-Glo 3D, 6 days); assay type: cell-based; details: 144 h
[19] = Mouse pharmacokinetic study; assay type: in vivo; details: female, Balb/c mouse, single dose 10 mg/kg, po, plasma; for AUC(0-t): read-out: AUC0-8h; for Cmax: read-out: Cmax
Method: The purpose of this study was to evaluate the pharmacokinetic properties of compounds in Balb/c mouse (♀) following single dose administration. Six mice were needed for each compound and the six mice were divided into two groups (n=3/group), group A and group B. Mice in group A were treated with a single 3 mg/kg dose of compound (iv). Mice in group B were treated with a single 10 mg/kg dose of compound (po). For each mouse in group A, blood samples were collected at the time point of 0.083, 0.5, 1, 2, 4 and 8 h post-dose. For each mouse in group B, blood samples were collected at the time point of 0.5, 1, 2, 4, 6 and 8 h post-dose. Blood samples were placed on ice until centrifugation to obtain plasma samples. The plasma samples were stored at −80° C. until analysis. The concentration of compound in plasma samples was determined using a LC-MS/MS method.
For the prodrug, only the oral PK study was performed and the dosage was adjusted to be equal to 10 mg/kg of parent drug. The concentrations of both prodrug and parent drug in plasma were determined using a LC-MS/MS method.

[20] = target: T6, K-Ras G12A; test: SOS1 catalyzed nucleotide exchange assay (GDP form K-Ras), TR-FRET; details: read-out: Biochemical assays, IC50, K-Ras G12A GDP
Method: as §1

[21] = target: T7, K-Ras WT (Homo sapiens, UniProt P01116); test: as above; details: read-out: Biochemical assays, IC50, K-Ras WT GDP
Method: as §1

[22] = target: T7, K-Ras WT; test: GTP-K-Ras (GppNp-K-Ras) and cRAF interaction assay, HTRF; details: read-out: Biochemical assays, IC50, K-Ras WT GppNp
Excerpt: as §2

[23] = target: T1, K-Ras G13D; test: as above; details: read-out: Biochemical assays, IC50, K-Ras G13D GppNp
Excerpt: as §2

[24] = tested on: SW620 cell line (K-Ras G12V); test: Phospho-ERK1/2(THR202/TYR204) HTRF assay; assay type: cell-based; details: Homo sapiens, SW-620; SW620 cells (K-Ras G12V), 2 hours incubation; read-out: p-ERK, IC50(nM) SW620
[25] = tested on: NCI-H358 cell line (K-Ras G12C); test: Phospho-ERK1/2(THR202/TYR204) HTRF assay; assay type: cell-based; details: Homo sapiens; NCI-H358 cells (K-Ras G12C), 2 hours incubation; read-out: p-ERK, IC50(nM) NCI-H358
[26] = 144 h, AGS (K-Ras G12D), absolute IC50, read-out: Cell Growth Inhibition, IC50, AGS
[27] = Homo sapiens, ASPC1, 144 h, AsPC-1 (K-Ras G12D), absolute IC50, read-out: Cell Growth Inhibition, IC50, AsPC-1
[28] = Homo sapiens, SW-620, 144 h, SW620 (K-Ras G12V), absolute IC50, read-out: Cell Growth Inhibition, IC50, SW620
[29] = TCC-PAN2 (K-Ras G12R), absolute IC50, read-out: Cell Growth Inhibition, IC50, TCC-PAN2
[30] = Homo sapiens, MKN-1 (K-Ras WT), absolute IC50, read-out: Cell Growth Inhibition, IC50, MKN-1
[31] = Homo sapiens, NCI-H358 (K-Ras G12C), absolute IC50, read-out: Cell Growth Inhibition, IC50, NCI-H358
[32] = Homo sapiens, NCI-H460 (K-Ras Q61H), absolute IC50, read-out: Cell Growth Inhibition, IC50, NCI-H460

SMILES	IC50 [1] [µM]	IC50 [2] [µM]	IC50 [3] [µM]	IC50 [4] [µM]	IC50 [5] [µM]	IC50 [6] [µM]	IC50 [7] [µM]	IC50 [8] [µM]	IC50 [9] [µM]	IC50 [10] [µM]	IC50 [11] [µM]	IC50 [12] [nM]	IC50 [14] [nM]	IC50 [15] [nM]	IC50 [16] [nM]	IC50 [17, 26] [µM]	IC50 [17, 27] [µM]	IC50 [17, 28] [µM]	IC50 [18, 30] [µM]	IC50 [18, 32] [µM]	further results
C#Cc1c(F)ccc2cc(O)cc(-c3ncc4c(N(C)[C@@H]5C[C@H]5F)nc(OC[C@@]56CCCN5C[C@H](OC)C6)nc4c3F)c12 (mixture of isomers) [Compound 5, 5-ethynyl-6-fluoro-4-(8-fluoro-4-((trans-2-fluorocyclopropyl)(methyl)amino)-2-(((2R,7aS)-2-methoxytetrahydro-1H-pyrrolizin-7a(5H)-yl)methoxy)pyrido[4,3-d]pyrimidin-7-yl)naphthalen-2-ol]	0.00329	0.00248	0.00339	0.00323	0.00162	0.645	0.317	0.0652	0.0903	0.145	0.137	13.8	780	113	27.4	0.0347	0.467	0.0141	0.0774	> 1	IC50 [13]: 20 nM; IC50 [18, 29]: > 1 µM; IC50 [18, 31]: 0.165 µM; AUC(0-t) [19]: 168 ng·h/mL; Cmax [19]: 91.3 ng/mL
[2H]C([2H])([2H])N(c1nc(OC[C@@]23CCCN2C[C@H](F)C3)nc2c(F)c(-c3cc(O)cc4ccc(F)c(C#C)c34)ncc12)C1CC1 [Compound 4, 4-(4-(cyclopropyl(methyl-d3)amino)-8-fluoro-2-(((2R,7aS)-2-fluorotetrahydro-1H-pyrrolizin-7a(5H)-yl)methoxy)pyrido[4,3-d]pyrimidin-7-yl)-5-ethynyl-6-fluoronaphthalen-2-ol]	0.0101	0.00383	0.00537	0.000949	0.00446	0.308	0.587	0.0888	0.0977	0.234	0.117		392	38.3	14.4	0.0414	0.772	0.0227	0.0953	0.508	IC50 [20]: 0.00697 µM; IC50 [21]: 0.00889 µM; IC50 [22]: 0.179 µM; IC50 [13]: 7.28 nM; AUC(0-t) [19]: 5640 ng·h/mL; Cmax [19]: 1950 ng/mL
C#Cc1c(F)ccc2cc(O)cc(-c3ncc4c(N(C)C5CC5C)nc(OC[C@@]56CCCN5C[C@H](F)C6)nc4c3F)c12 (stereo partly drawn) [Compound 49, 5-ethynyl-6-fluoro-4-(8-fluoro-2-(((2R,7aS)-2-fluorotetrahydro-1H-pyrrolizin-7a(5H)-yl)methoxy)-4-(methyl(2-methylcyclo-propyl)amino)pyrido[4,3-d]pyrimidin-7-yl)naphthalen-2-ol]	0.00924	0.00601	0.00779	0.00111	0.00485	> 1	~1	0.222	0.144	0.333	0.23	56.9	925	71	25.9	0.105	1.06	0.0151	0.137	0.646	IC50 [20]: 0.0252 µM; IC50 [21]: 0.0086 µM; IC50 [23]: 0.0204 µM; IC50 [22]: 0.315 µM; IC50 [24]: 44.1 nM; IC50 [25]: 68.9 nM; IC50 [18, 29]: > 1 µM; IC50 [18, 31]: 0.211 µM
